Test results taken from the supplement of paper PMC4604168 (melanoma cell lines).
The list shows a part of the results. Repeats are few or missing, and single values can be far off.

Key:
Test in all cases: cell count relative to DMSO control; melanoma cells; higher = more viable cells
Conditions in all cases: library dose: low library concentration; 72 h
[1] = tested on: MZ2-MEL
[2] = tested on: MeWo
[3] = tested on: RPMI7951
[4] = tested on: RVH-421
[5] = tested on: SkMel28
[6] = tested on: SkMel2
[7] = tested on: SkMel30
[8] = tested on: SkMel5
[9] = tested on: UACC257
[10] = tested on: UACC62
[11] = tested on: WM115
[12] = tested on: WM1716
[13] = tested on: WM1745
[14] = tested on: WM3526
[15] = tested on: WM3619
[16] = tested on: WM451Lu
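Further: cell number obtained by counting DAPI-stained nuclei in high-throughput microscope images with image analysis software, screen run in 1,536-well plates.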

| Structure (SMILES) | cell count [1] [%] | cell count [2] [%] | cell count [3] [%] | cell count [4] [%] | cell count [5] [%] | cell count [6] [%] | cell count [7] [%] | cell count [8] [%] | cell count [9] [%] | cell count [10] [%] | cell count [11] [%] | cell count [12] [%] | cell count [13] [%] | cell count [14] [%] | cell count [15] [%] | cell count [16] [%] |
| --- | --- | --- | --- | --- | --- | --- | --- | --- | --- | --- | --- | --- | --- | --- | --- | --- |
| O=C(Nc1cccc(Cl)c1)Nc1ncc(CCNc2ncnc3ccsc23)s1 + NCC(=O)Nc1ccc(-n2nc(C(F)(F)F)cc2-c2ccc3c(ccc4ccccc43)c2)cc1 [OSU03012] (first compound 0.0008 µM, partner dose 1 µM) | 102 | 63.2 | 117 | 85.9 | 73.9 | 93.7 | 69.3 | 106 | 102 | 95.3 | 60.8 | 101 | 80.6 | 61.3 | 83.2 | 51.7 |
| O=c1[nH]nc(Sc2ncc([N+](=O)[O-])s2)n1-c1ccc2c(c1)OCCO2 + COc1cc(N2CCC(N3CCN(C)CC3)CC2)ccc1Nc1ncc(Cl)c(Nc2ccccc2S(=O)(=O)C(C)C)n1 [NVP-TAE684] (first compound 0.2 µM, partner dose 0.08 µM) | 98.9 | 89 | 85.3 | 110 | 86.5 | 90.6 | 129 | 97.6 | 87.9 | 75.7 | 99.7 | 104 | 72.6 | 106 | 76.1 | 94.3 |
| O=c1[nH]nc(Sc2ncc([N+](=O)[O-])s2)n1-c1ccc2c(c1)OCCO2 + Nc1cccc2c1CN(C1CCC(=O)NC1=O)C2=O [lenalidomide] (first compound 0.2 µM, partner dose 1 µM) | 97 | 87.6 | 90.5 | 92.1 | 119 | 93.6 | 101 | – | – | 92.8 | 96.2 | 102 | 104 | 102 | 96.3 | 102 |
| O=c1[nH]nc(Sc2ncc([N+](=O)[O-])s2)n1-c1ccc2c(c1)OCCO2 + CC(C)C[C@H](NC(=O)[C@H](Cc1ccccc1)NC(=O)c1cnccn1)B(O)O [Bortezomib] (first compound 0.2 µM, partner dose 0.001 µM) | 90.1 | 117 | 85.9 | 95.2 | 115 | 92.3 | 110 | – | – | 98 | 103 | 96.7 | 87.4 | 111 | 65.9 | 91.5 |
| O=c1[nH]nc(Sc2ncc([N+](=O)[O-])s2)n1-c1ccc2c(c1)OCCO2 + Cn1cnc2c(F)c(Nc3ccc(Br)cc3Cl)c(C(=O)NOCCO)cc21 [selumetinib] (first compound 0.2 µM, partner dose 0.015 µM) | 113 | 94 | 83.6 | 89.4 | 99.2 | 78.3 | 75 | – | – | 77.6 | 99.2 | 92.6 | 88.6 | 84 | 63.2 | 101 |
| O=c1[nH]nc(Sc2ncc([N+](=O)[O-])s2)n1-c1ccc2c(c1)OCCO2 + O=C(/C=C/c1cccnc1)NCCCCC1CCN(C(=O)c2ccccc2)CC1 [FK866] (first compound 0.2 µM, partner dose 0.01 µM) | 51.5 | 98.5 | 96.6 | 72.1 | 98.6 | 71.9 | 74.4 | – | – | 86.9 | 100 | 87.5 | 89 | 109 | 80.7 | 103 |
| O=c1[nH]nc(Sc2ncc([N+](=O)[O-])s2)n1-c1ccc2c(c1)OCCO2 + Cn1nnc2c(C(N)=O)ncn2c1=O [temozolomide] (first compound 0.2 µM, partner dose 2 µM) | 90.9 | 90.3 | 105 | 95.4 | 66.8 | 91.1 | 84.8 | – | – | 73.1 | 92.3 | 81.1 | 92.5 | 84 | 88.2 | 99.4 |
| O=c1[nH]nc(Sc2ncc([N+](=O)[O-])s2)n1-c1ccc2c(c1)OCCO2 + C[C@]1(O)C[C@@H](c2nc(-c3ccc4ccc(-c5ccccc5)nc4c3)c3c(N)nccn32)C1 [OSI906] (first compound 0.2 µM, partner dose 0.4 µM) | 84.4 | 101 | 106 | 113 | 86.6 | 81.6 | 101 | – | – | 76.4 | 96.9 | 93.9 | 78.6 | 88.9 | 83 | 98.4 |
| O=c1[nH]nc(Sc2ncc([N+](=O)[O-])s2)n1-c1ccc2c(c1)OCCO2 + Cc1cn(-c2cc(NC(=O)c3ccc(C)c(Nc4nccc(-c5cccnc5)n4)c3)cc(C(F)(F)F)c2)cn1 [nilotinib] (first compound 0.2 µM, partner dose 0.2 µM) | 89.7 | 92.6 | 88.6 | 109 | 105 | 102 | 94.8 | – | – | 83.9 | 98.7 | 94.1 | 84.6 | 91.5 | 83 | 109 |
| O=c1[nH]nc(Sc2ncc([N+](=O)[O-])s2)n1-c1ccc2c(c1)OCCO2 + C[C@]1(c2nc3c(C(N)=O)cccc3[nH]2)CCCN1 [Veliparib] (first compound 0.2 µM, partner dose 1.4 µM) | 103 | 100 | 88.8 | 76.8 | 98.4 | 90.3 | 83.2 | – | – | 87.7 | 85.9 | 104 | 122 | 118 | 105 | 84.1 |
| O=c1[nH]nc(Sc2ncc([N+](=O)[O-])s2)n1-c1ccc2c(c1)OCCO2 + C#Cc1cccc(Nc2ncnc3cc(OCCOC)c(OCCOC)cc23)c1 [erlotinib] (first compound 0.2 µM, partner dose 0.8 µM) | 95.2 | 91.6 | 74.2 | 80.5 | 81.7 | 93.7 | 93.3 | – | – | 105 | 88.5 | 95.9 | 84.2 | 107 | 96.8 | 109 |
| O=c1[nH]nc(Sc2ncc([N+](=O)[O-])s2)n1-c1ccc2c(c1)OCCO2 + CNC(=O)c1cc(Oc2ccc(NC(=O)Nc3ccc(Cl)c(C(F)(F)F)c3)cc2)ccn1 [sorafenib] (first compound 0.2 µM, partner dose 0.4 µM) | 95.5 | 103 | 88.4 | 111 | 100 | 101 | 93.8 | – | – | 107 | 98.1 | 85.6 | 102 | 86.4 | 102 | 101 |
| O=c1[nH]nc(Sc2ncc([N+](=O)[O-])s2)n1-c1ccc2c(c1)OCCO2 + COc1cc2c(Oc3ccc4[nH]c(C)cc4c3F)ncnc2cc1OCCCN1CCCC1 [cediranib] (first compound 0.2 µM, partner dose 0.4 µM) | 102 | 115 | 96.1 | 128 | 106 | 115 | 89.2 | 93 | 78.6 | 93.6 | 100 | 82.6 | 93.9 | 102 | 118 | 93.5 |
| O=c1[nH]nc(Sc2ncc([N+](=O)[O-])s2)n1-c1ccc2c(c1)OCCO2 + O=C(O)c1ccc2c(c1)nc(Nc1cccc(Cl)c1)c1ccncc12 [CX4945] (first compound 0.2 µM, partner dose 0.4 µM) | 97.2 | 98.2 | 98 | 108 | 106 | 98.3 | 86.2 | – | – | 110 | 111 | 89.8 | 94.7 | 112 | 96.3 | 102 |
